# In PMC4336329 (PLoS ONE, 2015):
# Among all 310,000 compounds or so, about 2,200 (0.71%) showed an effect of 50% or more. The effect is printed as a negative number. Some of the results follow.
# Target: human ether-à-go-go-related gene (hERG) potassium channel (human, UniProt Q12809)
# Test: primary screen, population patch clamp on CHO cells stably expressing hERG
# human ether-à-go-go-related gene (hERG) potassium channel, sequence (Q12809 whole entry, looked up): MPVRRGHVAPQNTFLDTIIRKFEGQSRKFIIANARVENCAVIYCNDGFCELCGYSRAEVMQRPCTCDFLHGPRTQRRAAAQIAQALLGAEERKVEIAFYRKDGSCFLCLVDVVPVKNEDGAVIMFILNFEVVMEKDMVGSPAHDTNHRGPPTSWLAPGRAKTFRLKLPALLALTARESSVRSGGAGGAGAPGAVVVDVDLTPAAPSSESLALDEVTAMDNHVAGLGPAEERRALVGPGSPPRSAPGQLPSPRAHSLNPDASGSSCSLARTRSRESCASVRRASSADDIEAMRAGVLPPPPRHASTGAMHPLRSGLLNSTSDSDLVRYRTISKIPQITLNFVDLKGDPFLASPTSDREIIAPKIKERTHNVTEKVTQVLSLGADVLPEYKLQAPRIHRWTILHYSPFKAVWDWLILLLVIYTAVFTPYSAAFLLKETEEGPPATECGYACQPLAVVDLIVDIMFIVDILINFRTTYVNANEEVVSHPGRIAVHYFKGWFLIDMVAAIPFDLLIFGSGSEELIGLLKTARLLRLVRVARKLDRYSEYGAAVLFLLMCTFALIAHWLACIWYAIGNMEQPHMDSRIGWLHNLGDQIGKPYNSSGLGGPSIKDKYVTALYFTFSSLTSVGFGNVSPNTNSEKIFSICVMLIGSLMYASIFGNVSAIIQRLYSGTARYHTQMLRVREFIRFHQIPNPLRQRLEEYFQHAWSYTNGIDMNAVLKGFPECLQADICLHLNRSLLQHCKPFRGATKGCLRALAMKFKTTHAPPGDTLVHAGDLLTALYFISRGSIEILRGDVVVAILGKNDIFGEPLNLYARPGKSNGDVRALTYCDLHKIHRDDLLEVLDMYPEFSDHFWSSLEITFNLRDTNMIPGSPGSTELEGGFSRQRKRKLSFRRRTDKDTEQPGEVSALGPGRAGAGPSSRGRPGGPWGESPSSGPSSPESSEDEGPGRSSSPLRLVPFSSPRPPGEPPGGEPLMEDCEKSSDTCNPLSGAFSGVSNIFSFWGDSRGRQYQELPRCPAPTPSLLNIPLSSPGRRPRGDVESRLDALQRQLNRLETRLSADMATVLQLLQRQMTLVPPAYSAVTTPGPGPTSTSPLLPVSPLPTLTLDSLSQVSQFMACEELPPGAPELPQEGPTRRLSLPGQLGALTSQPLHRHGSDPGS
row,Compound,"hERG current change (%, negative = inhibition) at 1uM"
1,O=S(=O)(NCc1ccccc1)NCc1cccc(C(F)(F)F)c1,8.71%
2,Cc1nc2cc(NS(=O)(=O)c3cccc(F)c3)ccc2s1,9.23%
3,CS(=O)(=O)c1ccc2nc(NC(=O)c3ccc(Cn4cc(Br)cn4)o3)sc2c1,15.3%
4,COc1ccc(/C=C/C(=O)N(Cc2cccs2)C2CCS(=O)(=O)C2)cc1 (stereo not drawn),-4.47%
5,CCOC(=O)c1sc(NC(C)=O)nc1C,-12.9%
6,COc1ccc2occ(C(=O)c3cccs3)c2c1,7.57%
7,Cc1ccnc(OC(C(=O)O)C(OCCc2ccccc2)(c2ccccc2)c2ccccc2)n1 (stereo not drawn),16.7%
8,O=C(O)C(Oc1ccc2ccccc2c1)c1ccccc1 (stereo not drawn),15.3%
9,O=C(NCCCN1CCCC1)C1CCN(C(=O)c2cc3sccc3n2Cc2ccc(F)cc2)CC1,-0.0417%
10,Br.Cc1nn(CCc2nc(-c3ccco3)cs2)c2[nH]c(=O)cc(C(F)(F)F)c12,7.48%
11,NC(=O)CC[C@H](NC(=O)c1ccc(F)cc1)C(=O)OCC(=O)Nc1ccc(N2CCOCC2)cc1,4.87%
12,Cc1ccc(S(=O)(=O)CCC(=O)OCc2nnc(-c3ccccc3Br)o2)cc1,-1.52%
13,CNC(=O)/C(C#N)=C/c1c(N2CC(C)OC(C)C2)nc2ccccn2c1=O (stereo not drawn),7.29%
14,CCCCCCCSc1nsc(N)n1,12.3%
15,O=C(O)CSC1CC(=O)N(c2ccc(Br)cc2)C1=O (stereo not drawn),12.1%
16,COc1ccc(C2C(C#N)=C(N)Oc3cc(O)ccc32)cc1OC (stereo not drawn),2.86%
17,Cc1cc(C)cc(N=c2c([N+](=O)[O-])nn(-c3ccc(Cl)cc3)n2O)c1,20%
18,COc1ccc(-c2cc(C(=O)OCC(=O)c3ccc(C)c([N+](=O)[O-])c3)c3ccccc3n2)cc1,9.69%
19,COc1ccc(-n2c(SCC(N)=O)nnc2-c2ccccc2F)cc1,7.28%
20,C(=C\c1ccccc1)/C=N/Nc1nc(N2CCCCC2)nc(N2CCCCC2)n1,10.7%
21,Cc1nn(-c2cc(N3CCOCC3)ccc2[N+](=O)[O-])c(=O)c2ccccc12,9.19%
22,CC(C)(C)C(=O)/C=c1\[nH]c(=O)/c(=C\c2ccc(F)cc2)s1,7.79%
23,c1ccc2c(c1)Oc1cccc3cccc-2c13,15.1%
24,Cc1c(C(=O)N2CCN(CCc3ccccn3)CC2)oc2ccc(Cl)cc12,-84.6%
